# Test results reported in the supplement of paper PMC8728848.
# This is one part of the list.
# What was measured:
# Experiment in all cases: glycan array binding signal (z-score within array); higher = stronger binding
# Details in all cases: glycan notation: IUPAC condensed, linker removed
# [1] = molecular target: GlcNAc(b1-3)Man
# In short: (§1)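 Arrays were curated from the Consortium for Functional Glycomics database, 3228 in total, and kept only where the protein sequence was available. Binding is expressed as a within-array Z-score. This score was averaged across arrays of the same protein sequence at different concentrations or buffers and across linkers, and negative values can be read as non-binding.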
# [2] = molecular target: GlcNAc(b1-3)[GlcNAc(b1-4)][GlcNAc(b1-6)]GlcNAc
# In short: as §1
# [3] = molecular target: GlcNAc(b1-3)[GlcNAc(b1-6)]Gal(b1-4)GlcNAc
# In short: as §1
# [4] = molecular target: GlcNAc(b1-3)[GlcNAc(b1-6)]GalNAc
# In short: as §1
# [5] = molecular target: GlcNAc(b1-3)[GlcNAc(b1-6)]GlcNAc(b1-4)GlcNAc
# In short: as §1
# [6] = molecular target: GlcNAc(b1-4)Gal(b1-4)GlcNAc
# In short: as §1
# [7] = molecular target: GlcNAc(b1-4)GlcNAc
# In short: as §1
# [8] = molecular target: GlcNAc(b1-4)GlcNAc(b1-4)GlcNAc
# In short: as §1
# [9] = molecular target: GlcNAc(b1-4)GlcNAc(b1-4)GlcNAc(b1-4)GlcNAc(b1-4)GlcNAc
# In short: as §1
# [10] = molecular target: GlcNAc(b1-4)GlcNAc(b1-4)GlcNAc(b1-4)GlcNAc(b1-4)GlcNAc(b1-4)GlcNAc
# In short: as §1
# [11] = molecular target: GlcNAc(b1-4)[GlcNAc(b1-6)]GalNAc
# In short: as §1
# [12] = molecular target: GlcNAc(b1-6)Gal(b1-4)GlcNAc
# In short: as §1
# [13] = molecular target: GlcNAc(b1-6)GalNAc
# In short: as §1
# [14] = molecular target: GlcNAc3Prop(b1-4)GlcNAc
# In short: as §1
# [15] = molecular target: GlcNAc6S(b1-3)Gal(b1-4)GlcNAc
# In short: as §1
# [16] = molecular target: Kdn(a2-3)Gal(b1-3)GalNAc
# In short: as §1
# [17] = molecular target: Kdn(a2-3)Gal(b1-3)GlcNAc
# In short: as §1
# [18] = molecular target: Kdn(a2-3)Gal(b1-4)Glc
# In short: as §1
# [19] = molecular target: Kdn(a2-3)Gal(b1-4)GlcNAc
# In short: as §1
# [20] = molecular target: Kdn(a2-3)Gal(b1-4)[Fuc(a1-3)]GlcNAc
# In short: as §1
# [21] = molecular target: Kdn(a2-6)Gal(b1-4)GlcNAc
# In short: as §1
# [22] = molecular target: Man(a1-2)Man(a1-2)Man(a1-3)Man
# In short: as §1
# [23] = molecular target: Man(a1-2)Man(a1-2)Man(a1-6)[Man(a1-3)]Man
# In short: as §1
# [24] = molecular target: Man(a1-2)Man(a1-3)Man
# In short: as §1
# [25] = molecular target: Man(a1-2)Man(a1-3)[Man(a1-2)Man(a1-6)]Man
# In short: as §1
# [26] = molecular target: Man(a1-2)Man(a1-3)[Man(a1-2)Man(a1-6)]Man(a1-6)[Man(a1-2)Man(a1-2)Man(a1-3)]Man
# In short: as §1
# [27] = molecular target: Man(a1-2)Man(a1-3)[Man(a1-2)Man(a1-6)]Man(a1-6)[Man(a1-2)Man(a1-2)Man(a1-3)]Man(b1-4)GlcNAc(b1-4)GlcNAc
# In short: as §1
# [28] = molecular target: Man(a1-2)Man(a1-3)[Man(a1-2)Man(a1-6)]Man(a1-6)[Man(a1-3)[Man(a1-6)]Man(a1-6)]Man(b1-4)GlcNAc(b1-4)GlcNAc
# In short: as §1
# [29] = molecular target: Man(a1-2)Man(a1-3)[Man(a1-6)]Man(a1-6)[Man(a1-2)Man(a1-3)]Man(b1-4)GlcNAc(b1-4)GlcNAc
# In short: as §1
# [30] = molecular target: Man(a1-2)Man(a1-6)[Man(a1-3)]Man(a1-6)[Man(a1-2)Man(a1-2)Man(a1-3)]Man
# In short: as §1
# [31] = molecular target: Man(a1-2)Man(a1-6)[Man(a1-3)]Man(a1-6)[Man(a1-2)Man(a1-2)Man(a1-3)]Man(b1-4)GlcNAc(b1-4)GlcNAc
# In short: as §1
# [32] = molecular target: Man(a1-3)[Man(a1-6)]Man
# In short: as §1
# [33] = molecular target: Man(a1-3)[Man(a1-6)]Man(a1-6)[Man(a1-2)Man(a1-3)]Man(b1-4)GlcNAc(b1-4)GlcNAc
# In short: as §1
# [34] = molecular target: Man(a1-3)[Man(a1-6)]Man(a1-6)[Man(a1-3)]Man
# In short: as §1
# [35] = molecular target: Man(a1-3)[Man(a1-6)]Man(a1-6)[Man(a1-3)]Man(b1-4)GlcNAc(b1-4)GlcNAc
# In short: as §1
# [36] = molecular target: Man(a1-3)[Man(a1-6)]Man(b1-4)GlcNAc(b1-4)GlcNAc
# In short: as §1
# [37] = molecular target: Man(a1-6)Man
# In short: as §1
# [38] = molecular target: Man(b1-4)GlcNAc
# In short: as §1
# [39] = molecular target: Neu5Ac(a2-3)Gal
# In short: as §1
# [40] = molecular target: Neu5Ac(a2-3)Gal(b1-3)GalNAc
# In short: as §1
# [41] = molecular target: Neu5Ac(a2-3)Gal(b1-3)GalNAc(b1-3)Gal(a1-4)Gal(b1-4)Glc
# In short: as §1
# [42] = molecular target: Neu5Ac(a2-3)Gal(b1-3)GalNAc(b1-3)Gal(b1-4)GlcNAc
# In short: as §1
# [43] = molecular target: Neu5Ac(a2-3)Gal(b1-3)GalNAc(b1-4)[Neu5Ac(a2-3)]Gal(b1-4)Glc
# In short: as §1
# [44] = molecular target: Neu5Ac(a2-3)Gal(b1-3)GalNAc6S
# In short: as §1
# [45] = molecular target: Neu5Ac(a2-3)Gal(b1-3)GlcNAc
# In short: as §1
# [46] = molecular target: Neu5Ac(a2-3)Gal(b1-3)GlcNAc(b1-3)Gal(b1-3)GlcNAc
# In short: as §1
# [47] = molecular target: Neu5Ac(a2-3)Gal(b1-3)GlcNAc6S
# In short: as §1
# [48] = molecular target: Neu5Ac(a2-3)Gal(b1-3)[Fuc(a1-4)]GlcNAc
# In short: as §1
# [49] = molecular target: Neu5Ac(a2-3)Gal(b1-3)[Fuc(a1-4)]GlcNAc(b1-3)Gal(b1-3)[Fuc(a1-4)]GlcNAc
# In short: as §1
# [50] = molecular target: Neu5Ac(a2-3)Gal(b1-3)[Fuc(a1-4)]GlcNAc(b1-3)Gal(b1-4)[Fuc(a1-3)]GlcNAc
# In short: as §1
# [51] = molecular target: Neu5Ac(a2-3)Gal(b1-3)[Neu5Ac(a2-3)Gal(b1-4)]GlcNAc
# In short: as §1
# [52] = molecular target: Neu5Ac(a2-3)Gal(b1-3)[Neu5Ac(a2-6)]GalNAc
# In short: as §1
# [53] = molecular target: Neu5Ac(a2-3)Gal(b1-4)Glc
# In short: as §1
# [54] = molecular target: Neu5Ac(a2-3)Gal(b1-4)GlcNAc
# In short: as §1
# [55] = molecular target: Neu5Ac(a2-3)Gal(b1-4)GlcNAc(b1-2)Man(a1-3)[GlcNAc(b1-2)Man(b1-4)GlcNAc(b1-2)Man(a1-6)]Man(b1-4)GlcNAc(b1-4)GlcNAc
# In short: as §1
# [56] = molecular target: Neu5Ac(a2-3)Gal(b1-4)GlcNAc(b1-2)Man(a1-3)[Neu5Ac(a2-6)Gal(b1-4)GlcNAc(b1-2)Man(a1-6)]Man(b1-4)GlcNAc(b1-4)GlcNAc
# In short: as §1
# [57] = molecular target: Neu5Ac(a2-3)Gal(b1-4)GlcNAc(b1-3)Gal(b1-3)GlcNAc
# In short: as §1
# [58] = molecular target: Neu5Ac(a2-3)Gal(b1-4)GlcNAc(b1-3)Gal(b1-4)GlcNAc
# In short: as §1
# [59] = molecular target: Neu5Ac(a2-3)Gal(b1-4)GlcNAc(b1-3)Gal(b1-4)GlcNAc(b1-3)Gal(b1-4)GlcNAc
# In short: as §1
# [60] = molecular target: Neu5Ac(a2-3)Gal(b1-4)GlcNAc(b1-3)Gal(b1-4)[Fuc(a1-3)]GlcNAc
# In short: as §1
# [61] = molecular target: Neu5Ac(a2-3)Gal(b1-4)GlcNAc(b1-3)GalNAc
# In short: as §1
binder,measurement,setting,value
"MVL (Microcystis viridis), Q9RHG4 (protein) MASYKVNIPAGPLWSNAEAQQVGPKIAAAHQGNFTGQWTTVVESAMSVVEVELQVENTGIHEFKTDVLAGPLWSNDEAQKLGPQIAASYGAEFTGQWRTIVEGVMSVIQIKYTF",glycan array binding signal (z-score),[1],-0.23
same,glycan array binding signal (z-score),[2],-0.233
same,glycan array binding signal (z-score),[3],-0.231
same,glycan array binding signal (z-score),[4],-0.23
same,glycan array binding signal (z-score),[5],-0.244
same,glycan array binding signal (z-score),[6],-0.225
same,glycan array binding signal (z-score),[7],0.119
same,glycan array binding signal (z-score),[8],1.3
same,glycan array binding signal (z-score),[9],0.051
same,glycan array binding signal (z-score),[10],-0.006
same,glycan array binding signal (z-score),[11],-0.229
same,glycan array binding signal (z-score),[12],-0.21
same,glycan array binding signal (z-score),[13],-0.236
same,glycan array binding signal (z-score),[14],-0.238
same,glycan array binding signal (z-score),[15],-0.119
same,glycan array binding signal (z-score),[16],0.09
same,glycan array binding signal (z-score),[17],-0.24
same,glycan array binding signal (z-score),[18],-0.223
same,glycan array binding signal (z-score),[19],-0.232
same,glycan array binding signal (z-score),[20],-0.121
same,glycan array binding signal (z-score),[21],-0.23
same,glycan array binding signal (z-score),[22],0.373
same,glycan array binding signal (z-score),[23],-0.183
same,glycan array binding signal (z-score),[24],-0.246
same,glycan array binding signal (z-score),[25],-0.231
same,glycan array binding signal (z-score),[26],7.38
same,glycan array binding signal (z-score),[27],1.22
same,glycan array binding signal (z-score),[28],5.26
same,glycan array binding signal (z-score),[29],2.01
same,glycan array binding signal (z-score),[30],1.31
same,glycan array binding signal (z-score),[31],6.83
same,glycan array binding signal (z-score),[32],-0.232
same,glycan array binding signal (z-score),[33],2.68
same,glycan array binding signal (z-score),[34],-0.241
same,glycan array binding signal (z-score),[35],2.72
same,glycan array binding signal (z-score),[36],1.59
same,glycan array binding signal (z-score),[37],-0.234
same,glycan array binding signal (z-score),[38],-0.244
same,glycan array binding signal (z-score),[39],-0.225
same,glycan array binding signal (z-score),[40],-0.215
same,glycan array binding signal (z-score),[41],-0.228
same,glycan array binding signal (z-score),[42],-0.238
same,glycan array binding signal (z-score),[43],-0.242
same,glycan array binding signal (z-score),[44],-0.238
same,glycan array binding signal (z-score),[45],-0.24
same,glycan array binding signal (z-score),[46],-0.241
same,glycan array binding signal (z-score),[47],-0.234
same,glycan array binding signal (z-score),[48],-0.24
same,glycan array binding signal (z-score),[49],-0.088
same,glycan array binding signal (z-score),[50],-0.175
same,glycan array binding signal (z-score),[51],-0.233
same,glycan array binding signal (z-score),[52],-0.195
same,glycan array binding signal (z-score),[53],-0.232
same,glycan array binding signal (z-score),[54],-0.233
same,glycan array binding signal (z-score),[55],0.586
same,glycan array binding signal (z-score),[56],0.954
same,glycan array binding signal (z-score),[57],-0.24
same,glycan array binding signal (z-score),[58],-0.229
same,glycan array binding signal (z-score),[59],-0.241
same,glycan array binding signal (z-score),[60],-0.239
same,glycan array binding signal (z-score),[61],-0.238
